According to PubChem BioAssay (Tox21):
Several values for one entry are separate records, joined by “and”; a condition that tells them apart may be missing. Identical values can stand only once. This list was built around the results that the source calls inconclusive (neither active nor inactive); the mix of calls is not that of the screen. Potencies beside an inconclusive call are fits to weak or partial responses and may not hold up. Activity calls are given as the source filed them. Calls follow the shape of the dose curve; as a rule, active = well fitted inhibition curve with a large enough effect in the repeat runs; inconclusive = weak or mixed curves; inactive = no such curve, though single readings can be large or run the other way.

Assay: qHTS assay to identify small molecule antagonists of the thyroid receptor (TR) signaling pathway (AID 743065); also: nearly all actives have a fitted effect of over 55% in size
Settings: GH3.TRE-Luc, T3-stimulated luciferase inhibition, 23.5 h; series mostly up to 70.3 µM; activity, negative = inhibition: at the top concentration
Outline: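 GH3.TRE-Luc rat pituitary cells (two TREs driving luciferase) were dosed with compound, then stimulated with 1 nM T3 (final) for 23.5 h at 37 C. ONE-Glo luminescence was the read-out, with CellTiter-Fluor fluorescence as the cytotoxicity counter-screen.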
% is scaled to controls: 0 for no effect and ±100 for the full control effect; potency is read from the fitted curve at half-maximal effect; tags tell the direction and shape of the fitted curve.

SMILES | Potency | activity, negative = inhibition
Oc1cc(Cl)cc(Cl)c1 | inconclusive: 61.8 µM [inhibitor, single point] | –
Cc1cc(-c2ccc(N)c(C)c2)ccc1N | inconclusive: 61.1 µM [inhibitor, partial curve, poor fit] | –
CC1(C)C(C=C(Cl)Cl)C1C(=O)OC(C#N)c1cccc(Oc2ccccc2)c1 (stereo not drawn) | inconclusive: 33.5 µM [inhibitor, single point] and inconclusive: 76.9 µM [inhibitor, single point] | –
[Cl-].[Cl-].[Hg+2] | active: 841 nM and active: 1.21 µM and active: 193 nM | –
CCCCCCCCCCCCCCC(Br)C(=O)O (stereo not drawn) | inconclusive: 68.6 µM [inhibitor, single point] | –
Clc1ccc(-c2ccc(Cl)c(Cl)c2Cl)c(Cl)c1Cl | – | inactive: 25.7%
CC(Cc1ccc(C(C)(C)C)cc1)CN1C[C@@H](C)O[C@@H](C)C1 (stereo partly drawn) | inconclusive: 48.6 µM [inhibitor, partial curve] | –
[Cd+2].[Cl-].[Cl-] | active: 27.5 µM and active: 38.6 µM | –
CCCCCCCCCc1ccc(O)cc1 | active: 30.9 µM | –
Oc1ccc(-c2ccccc2)cc1 | inconclusive: 75.9 µM [inhibitor, single point] and inconclusive: 77 µM [inhibitor, single point] | –
Cn1c(CCCC(=O)O)nc2cc(N(CCCl)CCCl)ccc21 | inconclusive: 33.5 µM [inhibitor, single point] | –
CCCCCCCCCC(CC)c1ccc(S(=O)(=O)O)cc1 (stereo not drawn) | inconclusive: 29.8 µM [inhibitor, single point] and inconclusive: 27.6 µM [inhibitor, single point] and inconclusive: 24.1 µM [inhibitor, single point] | –
CCC[CH2][Sn]([CH2]CCC)([O]C(C)=O)[O]C(C)=O | active: 3.89 µM | –
CCCCCCCCCC[N+](C)(C)CCCCCCCCCC | active: 5.96 µM and active: 9.69 µM | –
c1ccc2c(c1)[nH]c1cnccc12 | inconclusive: 48.6 µM [inhibitor, partial curve] | –
CS(=O)(=O)c1ccc(C(=O)C2C(=O)CCCC2=O)c([N+](=O)[O-])c1 | active: 69.8 µM | –
CC(C)CC(C)Nc1ccc(Nc2ccccc2)cc1 (stereo not drawn) | active: 30.1 µM | –
CCOP(=S)(OCC)OC(Cl)C(Cl)(Cl)Cl (stereo not drawn) | inconclusive: 77 µM [inhibitor, single point] | –
